Assay results from PubChem BioAssay AID2546 (National Center for Advancing Translational Sciences (NCATS), 2010).
Among all 310,000 compounds or so, about 11,000 (3.5%) were called active. This list was built around the results that the source calls inconclusive (neither active nor inactive); the mix of calls is not that of the screen. Calls come from the whole dose curve; as a rule, active = well fitted inhibition curve with a large enough effect; inconclusive = small, poorly fitted or top-dose-only effect, or effect the other way; inactive = flat fitted curve, though single readings scatter. Potencies of inconclusive entries are left out as doubtful fits.

assay: VP16 counterscreen qHTS for inhibitors of ROR gamma transcriptional activity; conditions: Drosophila S2 Gal4-VP16 UAS-luciferase, luminescence, 20 h; activity, negative = inhibition: at 53.6 µM (top of the series);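 note: Gal4-VP16 expression switched on by copper sulfate through the metallothionein promoter; nearly all actives have a fitted effect of over 50% in size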
% is set by controls: 0 for no effect and ±100 for the full control effect; potency is the fitted concentration of half-maximal effect; tags give direction and shape of the fitted curve.

Question: For `O=C(Nc1nnc(-c2ccccc2Cl)o1)c1nc2ccccc2s1`, which Potency is on record?
Answer: inconclusive [inhibitor, single point]

Question: Which Potency does the source give for `CN(c1ccc(C(=O)N2CCCCCC2)cc1)S(=O)(=O)c1ccc(Cl)cc1` here?
Answer: inconclusive [inhibitor, single point]

Question: Which Potency does the source give for `Cc1ccc(N2C(=O)c3cccc4c(N)ccc(c34)C2=O)c2cccnc12` here?
Answer: inconclusive [inhibitor, single point]

Question: For `Cc1ccccc1N1CCN(S(=O)(=O)c2ccc3oc(=O)ccc3c2)CC1`, which Potency is on record?
Answer: inconclusive [inhibitor, single point]

Question: With `COC(=O)c1c(OC)cc2c(c1C)Oc1c(Cl)c(OC(C)=O)c(Cl)c(C)c1C(=O)O2` as the compound, how does the “activity, negative = inhibition” value read?
Answer: inactive: 5.05%

Question: For `COc1cc(O)cc(/C=C/c2ccccc2)c1`, which Potency is on record?
Answer: inconclusive [inhibitor, single point]

Question: With `O=C(CCC(=O)Nc1ccccc1Cl)NNC(=S)Nc1ccccc1C(F)(F)F` as the compound, how does the Potency read?
Answer: inconclusive [inhibitor, single point]

Question: With `CCn1nnc(NC(=O)c2ccc(C(C)(C)C)cc2)n1` as the compound, how does the Potency read?
Answer: active: 12.6 µM

Question: Which Potency does the source give for `N#Cc1ccsc1NC(=O)COC(=O)CCCSc1nc2ccccc2s1` here?
Answer: active: 5.01 µM

Question: With `CNC(=S)N=Nc1c(O)[nH]c2ccccc12` as the compound, how does the Potency read?
Answer: inconclusive [inhibitor, single point]

Question: Which Potency does the source give for `CN(C)S(=O)(=O)c1ccc(C(=O)Nc2nc3ccccc3[nH]2)cc1` here?
Answer: inconclusive [inhibitor, single point]

Question: With `COc1cccc(CNC(=S)Nc2ccc(Cl)cc2C)c1` as the compound, how does the Potency read?
Answer: active: 6.31 µM

Question: Which “activity, negative = inhibition” value does the source give for `CC(C)C(NC(=O)c1ccc(F)cc1)C(=O)OCC(=O)N1CC(=O)Nc2ccccc21` (centres undefined) here?
Answer: inactive: -6.76%

Question: With `CC(C)(C)c1cc(NC(=O)c2ccc(OC3CCCC3)cc2)no1` as the compound, how does the “activity, negative = inhibition” value read?
Answer: inactive: -6.93%

Question: Which Potency does the source give for `CCN(CC)S(=O)(=O)c1ccc2[nH]cc(C(=O)NCCC3=CCCCC3)c(=O)c2c1` here?
Answer: active: 5.01 µM

Question: Which “activity, negative = inhibition” value does the source give for `C=CCn1c(O)c(N=NC(=O)c2ccccc2NS(=O)(=O)c2cccs2)c2ccccc21` here?
Answer: inactive: -18.9%

Question: With `O=C(CS(=O)(=O)c1ccccc1)NCc1ccc(Cl)cc1` as the compound, how does the “activity, negative = inhibition” value read?
Answer: inactive: 18.3%

Question: With `Cn1cnc([N+](=O)[O-])c1S(=O)(=O)c1ccc(Cl)cc1` as the compound, how does the Potency read?
Answer: active: 5.01 µM

Question: With `N#Cc1cc(C(=O)c2cc(Br)ccc2O)cn(C2CCCCC2)c1=O` as the compound, how does the Potency read?
Answer: inconclusive [inhibitor, single point]

Question: Which Potency does the source give for `Cc1ccccc1-c1nc(CS(=O)(=O)CC(=O)NCCCN2CC(C)CC(C)C2)c(C)o1` (centres undefined) here?
Answer: inconclusive [inhibitor, single point]

Question: With `O=C(Cn1nnc(-c2ccccc2)n1)N/N=C/c1cccc([N+](=O)[O-])c1O` as the compound, how does the Potency read?
Answer: inconclusive [inhibitor, full curve]

Question: With `CC1CC=CC2C1C(=O)N(Cc1ccccc1)C2c1ccc(C(F)(F)F)cc1` (centres undefined) as the compound, how does the Potency read?
Answer: inconclusive [inhibitor, single point]

Question: For `Cc1ccc(CS(=O)(=O)c2ncc(Cl)c(C(=O)Nc3nnc(C(C)C)s3)n2)cc1`, which Potency is on record?
Answer: active: 7.08 µM

Question: With `COc1ccc(S(=O)(=O)NCCCC(=O)Nc2ccc(Sc3ccc(N)cc3)cc2)cc1` as the compound, how does the Potency read?
Answer: inconclusive [inhibitor, single point]

Question: With `O=C(Oc1ccccc1)c1ccc(NC(=O)c2ccco2)cc1` as the compound, how does the Potency read?
Answer: inconclusive [inhibitor, single point]

Question: With `COc1ccc(N(C)C(=O)CCC(=O)Nc2ccc3nc(N4CCOCC4)cc(C)c3c2)c(OC)c1` as the compound, how does the “activity, negative = inhibition” value read?
Answer: inactive: -3.51%

Question: Which “activity, negative = inhibition” value does the source give for `Cc1cc(C(=O)NC2CC(C)(C)Cc3c2cnn3-c2ccc(F)cc2)no1` (centres undefined) here?
Answer: inactive: 25.3%

Question: Which Potency does the source give for `Cc1ccnc(NC(=S)NC(=O)/C=C/c2ccc(Cl)cc2)c1` here?
Answer: active: 12.6 µM

Question: Which “activity, negative = inhibition” value does the source give for `CC(C)Cn1c(-c2ccc(Cl)cc2)cnc1SCC(=O)N1CCOCC1` here?
Answer: inactive: 15%

Question: For `CCOc1ccc(C(C)NC(=S)NC2CCCCC2)cc1` (centres undefined), which Potency is on record?
Answer: active: 10 µM

Question: Which Potency does the source give for `O=C1c2cccnc2Nc2ccccc2N1CCCF` here?
Answer: inconclusive [inhibitor, single point]

Question: With `Cc1cc([N+](=O)[O-])ccc1-c1ccc(/C=N/NC(=O)c2ccc(Br)o2)o1` as the compound, how does the Potency read?
Answer: active: 7.94 µM

Question: With `CCOc1ccc2nc(NC(=O)c3cccc(-c4cc5ccccc5oc4=O)c3)sc2c1` as the compound, how does the Potency read?
Answer: active: 11.2 µM

Question: Which “activity, negative = inhibition” value does the source give for `O=C(CNC(=O)c1ccc(N2C(=O)c3ccccc3C2=O)cc1)OCC(=O)c1cccc2ccccc12` here?
Answer: inactive: 17.8%

Question: With `CNC(=O)NNC(=O)c1nc(-c2ccccc2)c(C)o1` as the compound, how does the “activity, negative = inhibition” value read?
Answer: inactive: -3.78%

Question: With `CNC(=O)CC1C(=O)N(c2ccc(F)cc2)C(=S)N1NC(=O)c1ccc(Br)cc1` (centres undefined) as the compound, how does the Potency read?
Answer: inconclusive [inhibitor, full curve]

Question: With `Clc1ccccc1OCc1nnc(-c2ccccc2Br)o1` as the compound, how does the Potency read?
Answer: inconclusive [inhibitor, single point]

Question: Which Potency does the source give for `CC1=NOC(=O)/C1=C/c1ccc(O)c(Br)c1` here?
Answer: inconclusive [inhibitor, single point]

Question: For `C/C(=N\NC(=O)c1ccc(N2CCCC2=O)cc1)c1ccncc1`, which “activity, negative = inhibition” value is on record?
Answer: inactive: -0.274%

Question: Which Potency does the source give for `CC(NC(=S)NCCCN1CCOCC1)C12CC3CC(CC(C3)C1)C2` (centres undefined) here?
Answer: inconclusive [inhibitor, single point]

Question: With `CCc1cc(/C(Cc2ccc3ccccc3n2)=N\O)c(O)cc1O` as the compound, how does the Potency read?
Answer: inconclusive [inhibitor, single point]

Question: With `COc1ccc(-c2cnn3c(N)c(S(=O)(=O)c4ccccc4)cnc23)cc1` as the compound, how does the Potency read?
Answer: active: 5.62 µM

Question: For `Cc1ccc(N2C(=O)C3C4C=CC(CC4)C3C2=O)cc1[N+](=O)[O-]` (centres undefined), which Potency is on record?
Answer: inconclusive [inhibitor, single point]

Question: With `CC(/C=C/c1ccc2c(c1)OCO2)=N/NC(=O)c1cccnc1` as the compound, how does the Potency read?
Answer: active: 6.31 µM

Question: With `COc1cc2nc(SCC(=O)NCCc3ccccc3)n(Cc3ccco3)c(=O)c2cc1OC` as the compound, how does the “activity, negative = inhibition” value read?
Answer: inactive: 20.9%

Question: For `COc1ccccc1NC(=S)NC1CC2CCC1C2` (centres undefined), which Potency is on record?
Answer: active: 15.8 µM

Question: With `CCCCn1c(=O)nc2n(-c3ccc(Cl)cc3)c3ccccc3cc-2c1=O` as the compound, how does the “activity, negative = inhibition” value read?
Answer: inactive: 2.47%

Question: Which Potency does the source give for `Cc1nn(CC(=O)N(C)Cc2ccc(F)cc2)c(C)c1[N+](=O)[O-]` here?
Answer: inconclusive [inhibitor, partial curve, poor fit]

Question: Which “activity, negative = inhibition” value does the source give for `Cc1cc(C(=O)Nc2cc(Br)ccc2O)on1` here?
Answer: inactive: 16.4%

Question: With `CCOC(=O)N1CCN(C(=O)c2oc3ccc(S(=O)(=O)N4CCCCC4)cc3c2C)CC1` as the compound, how does the “activity, negative = inhibition” value read?
Answer: inactive: -14.9%

Question: Which Potency does the source give for `Nc1nsc2ccccc12` here?
Answer: inconclusive [inhibitor, single point]

Question: For `Oc1ccccc1-c1cc(-c2ccccc2Cl)[nH]n1`, which Potency is on record?
Answer: inconclusive [inhibitor, single point]

Question: Which Potency does the source give for `c1ccn2cc(C34CC5CC(CC(C5)C3)C4)nc2c1` here?
Answer: active: 22.4 µM

Question: For `O=C(CCN1CCOCC1)N/N=C/c1cc(Br)cc(Br)c1O`, which Potency is on record?
Answer: active: 5.01 µM

Question: Which “activity, negative = inhibition” value does the source give for `C=CCNC(=S)NCC=C` here?
Answer: inactive: 4%

Question: With `CC(C)N1CCN(Cc2cccn2-c2ccccn2)CC1CCO` (centres undefined) as the compound, how does the “activity, negative = inhibition” value read?
Answer: inactive: 6.79%

Question: With `COc1ccc(CCNC(=O)C2CCCN(c3ncnc4c3nc3n4CCCCC3)C2)c(OC)c1` (centres undefined) as the compound, how does the “activity, negative = inhibition” value read?
Answer: inactive: 7.27%

Question: Which Potency does the source give for `O=C(Nc1nc2ccccc2s1)c1cc(-c2ccco2)nc2ccccc12` here?
Answer: active: 12.6 µM

Question: With `O=c1o[nH]c(-c2ccccc2)c1N=Nc1c(F)cccc1Cl` as the compound, how does the Potency read?
Answer: inconclusive [inhibitor, single point]

Question: For `COc1ccc(C(=O)NCCc2cc3c(OC)ccc(OC)c3[nH]c2=O)cc1OC`, which Potency is on record?
Answer: inconclusive [inhibitor, partial curve]

Question: With `Cc1ccc2c(c1)c1ncnc(N3CCC4(CC3)OCCO4)c1n2C` as the compound, how does the Potency read?
Answer: inconclusive [inhibitor, full curve, poor fit]

Question: With `CCOC(=O)c1c(NC(=O)c2nc3n(n2)C(C(F)F)CC(C)N3)sc2c1CCCC2` (centres undefined) as the compound, how does the Potency read?
Answer: inconclusive [activator, single point]

Question: For `COc1ccc(N2CC(C(=O)Nc3nc4ccccc4s3)CC2=O)cc1` (centres undefined), which “activity, negative = inhibition” value is on record?
Answer: inactive: 1.72%

Question: Which “activity, negative = inhibition” value does the source give for `O=C(NCc1cccnc1)C(=O)Nc1nc(C23CC4CC(CC(C4)C2)C3)cs1` here?
Answer: inactive: -2.98%

Question: With `Cc1ccc(NC(=O)NN2CCN(C)CC2)cc1C` as the compound, how does the “activity, negative = inhibition” value read?
Answer: inactive: 0.802%

Question: With `COc1cc(/C=C2\NC(=S)N(C)C2=O)ccc1O` as the compound, how does the Potency read?
Answer: inconclusive [inhibitor, single point]

Question: Which Potency does the source give for `COCC1CCN(C(=O)c2cc(COc3cccc4cnccc34)on2)CC1` here?
Answer: active: 12.6 µM

Question: With `O=C(NC(=S)N1CCc2ccccc21)c1ccco1` as the compound, how does the Potency read?
Answer: active: 3.16 µM

Question: With `COc1ccccc1NC(=O)CN(Cc1ccco1)C(=O)c1cncc(Br)c1` as the compound, how does the “activity, negative = inhibition” value read?
Answer: inactive: 0.326%

Question: For `O=C(c1ccccc1)N1N=C(c2ccc(F)cc2)CC1(O)C(F)(F)F` (centres undefined), which Potency is on record?
Answer: inconclusive [inhibitor, single point]

Question: With `CC(=Nc1ccc(C)cc1C)c1sc2ccccc2c1O` as the compound, how does the Potency read?
Answer: inconclusive [inhibitor, single point]

Question: Which Potency does the source give for `O=C1OC(Nc2ccc(F)c([N+](=O)[O-])c2)c2ccccc21` (centres undefined) here?
Answer: inconclusive [inhibitor, partial curve]

Question: With `CC(C)C(OC(=O)c1cccc(S(=O)(=O)NCC(F)(F)F)c1)C(=O)NC(N)=O` (centres undefined) as the compound, how does the Potency read?
Answer: inconclusive [inhibitor, single point]

Question: Which Potency does the source give for `COCc1ccc(C(=O)NC2CCCc3c2cnn3-c2ccc(C)c(C)c2)o1` (centres undefined) here?
Answer: active: 11.2 µM

Question: With `CCOC(=O)C1=C(C)Nc2ncnn2C1c1c[nH]c2ccccc12` (centres undefined) as the compound, how does the “activity, negative = inhibition” value read?
Answer: inactive: 0.265%

Question: For `Cc1cc(C)c(NC(=O)CSc2nnnn2-c2cccnc2)c(C)c1`, which “activity, negative = inhibition” value is on record?
Answer: inactive: -2.18%

Question: With `CCC(=O)Oc1ccc(C(=O)Nc2ccc3c(c2)C(=O)N(C2CCCCC2)C3=O)cc1` as the compound, how does the Potency read?
Answer: inconclusive [inhibitor, single point]

Question: With `CSc1nc(O)c(N=Nc2ccc(F)cc2F)c(=O)[nH]1` as the compound, how does the Potency read?
Answer: active: 10 µM

Question: With `CCOC(=O)C1CCN(C(=O)c2c(C)oc3c2C(=O)c2ccccc2C3=O)CC1` as the compound, how does the Potency read?
Answer: inconclusive [inhibitor, single point]
